Results on 43 molecules are retold here after publication PMC4336329 (PLoS ONE, 2015).

The campaign covered roughly 310,000 compounds. About 14,000 (4.5%) showed an effect of 50% or more. Effects have a minus sign here. The list shows a part of the results.
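Also: peak tail current of the secondary pulse compared with the same well before compound.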

The test deals with human ether-à-go-go-related gene (hERG) potassium channel (human, UniProt Q12809). As to the kind of experiment: primary screen, population patch clamp on CHO cells stably expressing hERG.
Sequence of human ether-à-go-go-related gene (hERG) potassium channel (Q12809 whole entry, looked up): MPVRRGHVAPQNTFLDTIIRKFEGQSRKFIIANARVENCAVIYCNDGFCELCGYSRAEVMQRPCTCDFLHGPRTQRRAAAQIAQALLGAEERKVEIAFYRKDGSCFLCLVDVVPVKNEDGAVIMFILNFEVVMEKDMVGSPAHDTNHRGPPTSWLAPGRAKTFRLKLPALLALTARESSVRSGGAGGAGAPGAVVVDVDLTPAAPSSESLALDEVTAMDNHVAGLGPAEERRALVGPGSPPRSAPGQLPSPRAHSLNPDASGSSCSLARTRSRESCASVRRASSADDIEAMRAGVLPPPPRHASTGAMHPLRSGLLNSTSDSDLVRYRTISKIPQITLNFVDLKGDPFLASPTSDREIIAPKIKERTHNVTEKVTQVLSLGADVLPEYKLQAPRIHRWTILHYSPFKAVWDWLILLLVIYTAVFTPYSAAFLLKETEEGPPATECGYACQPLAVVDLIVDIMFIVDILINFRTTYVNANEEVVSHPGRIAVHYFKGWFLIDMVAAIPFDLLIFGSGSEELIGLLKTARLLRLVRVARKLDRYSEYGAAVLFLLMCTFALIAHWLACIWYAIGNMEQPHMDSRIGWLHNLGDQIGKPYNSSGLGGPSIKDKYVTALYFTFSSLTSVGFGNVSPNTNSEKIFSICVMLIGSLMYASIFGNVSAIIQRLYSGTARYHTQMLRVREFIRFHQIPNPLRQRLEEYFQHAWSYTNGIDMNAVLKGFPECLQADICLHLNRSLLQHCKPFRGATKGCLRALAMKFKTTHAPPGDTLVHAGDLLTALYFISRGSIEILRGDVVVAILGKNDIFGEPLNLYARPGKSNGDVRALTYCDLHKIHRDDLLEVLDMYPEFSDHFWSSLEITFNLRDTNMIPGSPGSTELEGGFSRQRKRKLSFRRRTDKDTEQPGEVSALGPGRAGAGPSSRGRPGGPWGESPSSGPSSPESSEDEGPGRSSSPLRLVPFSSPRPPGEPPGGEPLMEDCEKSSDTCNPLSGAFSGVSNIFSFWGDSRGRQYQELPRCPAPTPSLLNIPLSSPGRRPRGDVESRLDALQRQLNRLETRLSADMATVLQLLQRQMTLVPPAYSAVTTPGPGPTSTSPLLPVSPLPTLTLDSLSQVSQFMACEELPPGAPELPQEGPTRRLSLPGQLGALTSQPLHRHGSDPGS
For the molecule `O=C(Nc1cccc(OC(=O)N2CCCCC2)c1)N1CCOCC1`, the “hERG current change (%, negative = inhibition) at 10uM” value was determined as 18.9%. To `CCn1c(SC)nnc1C1CCN(CC(=O)Nc2ccccc2N2CCOCC2)CC1` belongs -31%; to `O=C(NCc1ccccc1)C(c1ccccn1)N(C(=O)c1csnn1)c1ccccc1F` (stereo not shown), -5.45%. Turning to `COc1ccc([N+](=O)[O-])cc1NC(=O)CCc1ccccc1`, the “hERG current change (%, negative = inhibition) at 10uM” value was determined as 4.14%. On to `COC(=O)CCC(=O)NC(=S)Nc1ccc(S(=O)(=O)N2CCCC2)cc1`, for which the “hERG current change (%, negative = inhibition) at 10uM” value amounted to 18.7%. Consider `CCOc1ccc(C(=O)CCC(=O)NCC(=O)Nc2c(C)cccc2C)cc1`, for which the “hERG current change (%, negative = inhibition) at 10uM” value is -7.13%. In the case of `CCOc1ccc(C2C(C(=O)c3ccco3)=C(O)C(=O)N2CCCn2ccnc2)cc1OC` (stereo not shown), the “hERG current change (%, negative = inhibition) at 10uM” value was -5.03%. To `COc1ccc(NC(=O)CSc2ccccn2)c([N+](=O)[O-])c1` belongs 1.83%; to `S=c1[nH]c2ccccc2n1Cc1ccccc1`, 19.9%; to `O=C1CCC([N+](=O)[O-])C(c2cccc(Cl)c2Cl)N1` (stereo not shown), -6.81%. For `CCOC(=O)C1(Cc2ccc(OC)cc2)CCN(C(=O)c2cc3ccccc3[nH]2)CC1`, the “hERG current change (%, negative = inhibition) at 10uM” value was found to be 11.5%.

As to `CC(OC(=O)CN1C(=O)C2CCCCC2C1=O)C(=O)Nc1ncc(Cl)cc1Cl` (stereo not shown), the “hERG current change (%, negative = inhibition) at 10uM” value is given as -2.76%. Regarding `CC(C)C(=O)Nc1nnc(SCC(=O)N2C(C)CCCC2C)s1` (stereo not shown), the “hERG current change (%, negative = inhibition) at 10uM” value is recorded as 3.31%.

Take `O=C(Cn1nnc(-c2ccccc2)n1)Nc1ccccc1N1CCOCC1`: the “hERG current change (%, negative = inhibition) at 10uM” value is -26%. For `NC(=O)C(=O)N/N=C1\CCc2ccccc21` the value was 19.3%; for `COc1cccc(CNC(=O)COC(=O)C2CC3CCCC(C2)C3=O)c1` (stereo not shown), 18%; for `Cn1nc(C(=O)NCC(=O)Nc2ccc(F)c(F)c2F)c2ccccc2c1=O`, 8.87%. For `CN(C)c1ccc(N2C(=NC(=O)CC3CCCCC3)SC3CS(=O)(=O)CC32)cc1` (stereo not shown) the value was 6.21%; for `Clc1ccc(CNc2ccccc2NCc2ccc(Cl)nc2)cn1`, -12.1%. To `Cc1cc(C)nc(SCc2ccc(F)cc2)n1` belongs -4.43%; to `CCn1c(SCC(=O)Nc2cc(C)on2)nc2c1c(=O)n(C)c(=O)n2C`, 3.53%.

`CCCNS(=O)(=O)c1ccc(OCC(=O)N2CCOCC2)cc1`: the “hERG current change (%, negative = inhibition) at 10uM” value was -4.39%. For `CN(Cc1ccccc1)C(=O)c1[nH]cnc1C(=O)N[C@@H](CCCCNC(=O)OC(C)(C)C)C(=O)OC(C)(C)C` the value was -17.1%; for `Nc1c(-c2ccccn2)cnn1-c1nc(-c2ccc(F)cc2)cs1`, 10.6%; for `Cc1csc(N(C)C(=O)CSc2nnc(COc3cccc4ccccc34)o2)n1`, 4.34%. For the molecule `O=C(CS(=O)(=O)c1c[nH]c2ccccc12)Nc1ccc(F)cc1`, the “hERG current change (%, negative = inhibition) at 10uM” value is reported as -21.8%. Consider `Cc1cc(CC(=O)[O-])n(C)c1C(=O)c1ccc(Cl)cc1.[Na+]`, for which the “hERG current change (%, negative = inhibition) at 10uM” value is given as 9.57%.

Consider `COc1ccc(OC)c(NC(=O)C2CCN(S(=O)(=O)c3c(C)noc3C)CC2)c1`, for which the “hERG current change (%, negative = inhibition) at 10uM” value is given as -19.2%.

`CC(=O)Nc1cccc(NC(=O)c2cc(-c3ccccn3)nc3ccc(Cl)cc23)c1`: the “hERG current change (%, negative = inhibition) at 10uM” value is recorded as -11%.

With `O=C(c1ccco1)N1CCN(c2nc3ccccc3c(=O)n2-c2ccccc2)CC1`, the “hERG current change (%, negative = inhibition) at 10uM” value is recorded as -54.9%.

For `COC(=O)c1ccc(OC(=O)C2CC(=O)N(c3cccc(C)c3)C2)cc1` (stereo not shown), the “hERG current change (%, negative = inhibition) at 10uM” value was determined as 4.38%.

In the case of `Cc1ccc(NC(=O)NC(=S)NC(=O)c2ccccc2)cc1`, the “hERG current change (%, negative = inhibition) at 10uM” value is on record as -21.8%. To `COc1ccc(C(=O)NCCC(=O)N2CCC3(CC2)NCCc2[nH]cnc23)cc1` belongs 26.5%. `CC(=O)c1ccc(Cc2cnc(N)s2)cc1`: the “hERG current change (%, negative = inhibition) at 10uM” value is given as -3.75%.

Take `COc1ccccc1CNC(=O)COC(=O)Cc1cccs1`: the “hERG current change (%, negative = inhibition) at 10uM” value is 22%. To `Cc1cc(C(=O)OCC(=O)N(CC(C)C)c2c(N)n(Cc3ccccc3)c(=O)[nH]c2=O)c(C)o1` belongs -0.0284%; to `CN(C)/C=C/c1c([N+](=O)[O-])c2ccc(O)cc2n1-c1ccccc1`, 15.6%; to `Cc1c(O)ccc(C(=O)CN2CCN(Cc3ccc4c(c3)OCO4)CC2)c1O`, -46.6%. In the case of `O=C(CN1C(=O)COc2ccc(Cl)cc21)N1CCOCC1`, the “hERG current change (%, negative = inhibition) at 10uM” value turned out to be 23.6%. For `COC(=O)C1=C(C(=O)OC)SC(=C2C(=S)C(C)(C)N(C(=O)C3CC3)c3ccccc32)S1` the value was -3.07%; for `O=C(c1ccc2c3c(cccc13)CC2)N1CCN(c2ncccn2)CC1`, -7.42%. For `COc1ccccc1NC(=O)CCc1nnc2ccc(NCc3ccco3)nn12` the value was -6.9%. In the case of `CN(Cc1cccs1)C(=O)c1cc(S(=O)(=O)N2CCOCC2)ccc1F`, the “hERG current change (%, negative = inhibition) at 10uM” value amounted to 0.54%.
